Assay results published in the supplement of paper PMC11417369.
± gives the standard deviation of the averaged measurements. The list shows a part of the results.

Test system: PfAP2-EXP AP2 domain (GST-tagged)
Experiment: gcPBM binding intensity (ln(normalized median fluorescence intensity)); higher = stronger DNA binding
How it was run: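 An Agilent 4 × 180k array of primer-extended double-stranded 36-bp intergenic genomic probes, with negative controls, was incubated for 1 h with GST-tagged P. falciparum DNA-binding domains expressed in E. coli. Alexa488 anti-GST antibody detected bound protein, scanned at 488 nm. Binding intensity is the highest Masliner-normalised natural-log median intensity across replicate spots of either probe orientation.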

Sequence | gcPBM binding intensity (ln)
TTTTGGTGGGTTACAAGTACTCAAAATGGATTGTTA [XGTACX_site1951] | 8.53 ± 0.29
AAAAAAAAAAAAAAAACATGCAATAAAGTGTGCGTA [TGCATGCA_site982] | 8.68 ± 0.26
TTAAATATATGTAATACGCACACTTAATATTTTGAG [CACACA_site4170] | 8.41 ± 0.37
TCACATACATTACTTACACACCATATTGATATATAC [CACACA_site6353] | 8.86 ± 0.54
TAAAAAAGAAAATATATACACACCAAAAAAAAAAAA [CACACA_site3146] | 8.44 ± 0.42
ATTAAATCCGCACGCACACACACATATTAATAAAAA [CACACA_site3992] | 8.74 ± 0.32
ACATGTCTTAAAAGACGTACATATAAAAGAACCCTA [XGTACX_site8940] | 8.6 ± 0.42
AATATTAAAGAATAATGTACAAAATAAAAGCAAAGA [XGTACX_site3550] | 9.23 ± 0.42
AAACAAAAAAATTGAAATAAAATGAAGTAAATGAAC [TGCATGCA_negctrl_site129] | 9.15 ± 0.23
TTATTTTTTAAAAGTAGTACAAATTTTTATAGAAAA [XGTACX_site7407] | 8.48 ± 0.18
CAATATTTGTTATGGGTGCAAACCGCATATATATAA [GTGCAC_site9543] | 8.76 ± 0.028
ATTCCTTGGTTGTATAGTACTTTGGTTAAACATAAA [XGTACX_site6967] | 8.82 ± 0.4
AATATAATATAATGCACACATAAAAAAAAAATCAAA [CACACA_site122] | 8.71 ± 0.54
TTTTTATATAACCTTCTTAATTCTTTTTTTTTTTTT [XGTACX_negctrl_site591] | 8.38 ± 0.47
AAAACAAAATTATGAACATGCAAGGTAAAATTGTAA [TGCATGCA_site775] | 9.12 ± 0.29
AACTTACTTGGACATACACACATATAGATTTATATA [CACACA_site7412] | 8.84 ± 0.3
GTACAAATGTTGTGTATATATACACACATACATATA [XGTACX_negctrl_site276] | 8.69 ± 0.33
ATGTAGTTTTATCAGTGTACAAGTATTTTATCACAT [XGTACX_site8958] | 8.78 ± 0.34
TTATTTATAAATATTAATTTTTTTTTTTTTTTTTTT [XGTACX_negctrl_site105] | 8.52 ± 0.26
TTTTATGTTTCAAAATGTACATTAAAATATACCATA [XGTACX_site1713] | 8.29 ± 0.42
AAAATATATATATATATATATATATGTATACTCCTA [XGTACX_negctrl_site312] | 8.65 ± 0.071
TTTTATTATTGAATACTAGTATATATAATATGAAGA [CACACA_negctrl_site910] | 8.52 ± 0.42

Sequence | gcPBM binding intensity (ln)
ATATATATATTTTTTAAACACACACCGAAATATTTG [CACACA_site8937] | 9.14 ± 0.014
TTAATTAAAACGAATACACACATAAATATATAAAAG [CACACA_site1254] | 8.81 ± 0.45
CATATGCATACTATACGTACATATGTATATAATATA [XGTACX_site7738] | 8.64 ± 0.31
TTTTATTTTATTCTTAAATAAGTATTATAAAATATG [XGTACX_negctrl_site201] | 8.15 ± 0.24
TATAAAGCATATTAAAGTACTTATTTTCCTTTTTCT [XGTACX_site8892] | 8.44 ± 0.44
TATATATATATGTGCACACATAATAAAAAAAAAAAT [CACACA_site3831] | 9.9 ± 0.11
TTAATGTTGTATGGTTGTACAATAAGCCCCTTTTAA [XGTACX_site2484] | 8.54 ± 0.31
TTATTTGAACAATATGCACACATTTTATTTATTTTA [CACACA_site3420] | 8.61 ± 0.23
TTAAAGCTTACATATACACACATACATAAATTCATA [CACACA_site8785] | 8.5 ± 0.38
TATGATGATATAAAAACACACACATATAATATAATA [CACACA_site8321] | 8.63 ± 0.42
TTTTGATCATCCAAAATATCTTCATCTGAACTACTA [CACACA_negctrl_site939] | 8.35 ± 0.49
GACATATTCCCCCCCACACACACACCCACATACATA [CACACA_site2302] | 10.8 ± 0.11
GTAAAATAAAATATATGTACATATGTATATGAGGTA [XGTACX_site3743] | 8.97 ± 0.39
ATTCAAACAAATTAATGTACATATATATAAGATATT [XGTACX_site1531] | 8.56 ± 0.4
ATTTAGAAATATATTTGTACATATATATATATATAT [XGTACX_site7129] | 10.2 ± 0.35
TACCCTGATCGGCATGCATGTAAGTAACAAATATAT [TGCATGCA_site153] | 9.71 ± 0.35
TGTTGATAAAAAATAAAAAATAAAAAAATAAAATAT [TGCATGCA_negctrl_site559] | 8.61 ± 0.56
ATATATACATATAAATGTACATAATTATTATGCACA [XGTACX_site1261] | 8.77 ± 0.34
ATAAAAAGAAAAAAGGGTACACTATACTATTTAAAA [XGTACX_site4467] | 8.46 ± 0.33
CTACATATTAATATATGTACATATTAATATATCTAA [XGTACX_site7118] | 8.18 ± 0.24
TAAATAAGGAAGGAAACACACATTAAAAAATAAATA [CACACA_site618] | 8.81 ± 0.39
AACAGAAGCACATACACACACTCAAAAAAAAAAAAA [CACACA_site5652] | 8.22 ± 0.47
